Structures can show the parent of a compound that is named as a salt. ± gives the standard deviation of the averaged measurements. Some of the results follow. *1 amine or outer side, *2 acyl side, *3 side chain or, on linkers, in order; H or OH if unused. Where a SMILES comes first, the peptide text is derived from it. Bridges are numbered along the chain shown (N, C = ends). Roman numbers before positions name the chains, in order. [ ]: non-standard residue; d: D form. Actinocin(9to1) = Cc1c2oc3c(C)ccc(C(=O)[*:1])c3nc-2c(C(=O)[*:2])c(N)c1=O; NMeV = CN[C@H](C(=O)O)C(C)C; Sar = CNCC(=O)O
What was measured:
Details in all cases: priming compound concentration 100 µM
[1] = system: hAMSC donor 1; assay: Hoechst total cell count ratio vs vehicle control; higher = more cells (less toxicity)
[2] = system: hAMSC donor 2; assay: as above
[3] = system: hAMSC donor 1; assay: transgenic luciferase activity (RLU/mg protein) fold change vs vehicle control (ratio); higher = more transgene expression
[4] = system: hAMSC donor 2; assay: as above
[5] = system: hAMSC donor 1; assay: transfection efficiency (EGFP+ cells / Hoechst count) fold change vs vehicle control (ratio); hAMSC are human adipose-derived mesenchymal stem cells given an EGFP-luciferase plasmid by lipofection; higher = enhanced transfection
[6] = system: hAMSC donor 2; assay: as above
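Throughout, for Hoechst total cell count ratio vs vehicle control: compound added 30 min before Lipofectamine 3000 lipoplex delivery, triplicate-well means expressed against DMSO vehicle control wells of the same 96-well plate.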
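Throughout, for transfection efficiency (EGFP+ cells / Hoechst count) fold change vs vehicle control: compounds added 30 min before Lipofectamine 3000 lipoplex transfection, triplicate means relative to DMSO vehicle wells on the same plate, luciferase RLU normalized to BCA total protein.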
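Throughout, for transgenic luciferase activity (RLU/mg protein) fold change vs vehicle control: compounds in DMSO added 30 min before Lipofectamine 3000 transfection of pEGFP-Luc in 96-well plates, values are means of triplicate wells over DMSO vehicle wells on the same plate.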

SMILES	Hoechst total cell count ratio [1]	Hoechst total cell count ratio [2]	transgenic luciferase activity [3]	transgenic luciferase activity [4]	transfection efficiency [5]	transfection efficiency [6]
CCOC(=O)[C@H](CCc1ccccc1)N[C@H]1CCc2ccccc2N(CC(=O)O)C1=O [Benazepril hydrochloride]	1.4 ± 0.12	1.05 ± 0.17	0.529 ± 0.29	0.661 ± 0.037	0.971 ± 0.16	0.917 ± 0.097
CN(C)CCc1c[nH]c2ccc(Cn3cncn3)cc12 [Rizatriptan benzoate]	1.02 ± 0.11	1.39 ± 0.31	1.44 ± 0.44	0.716 ± 0.26	0.987 ± 0.38	0.862 ± 0.18
CC(C(=O)O)c1ccc(CC2CCCC2=O)cc1 (stereo not given) [Loxoprofen sodium]	1.05 ± 0.27	1.05 ± 0.065	2.7 ± 1.6	0.475 ± 0.19	1.14 ± 0.13	1.23 ± 0.13
OC[C@H]1O[C@@H](n2cnc3c(N[C@H]4CCC[C@@H]4O)ncnc32)[C@H](O)[C@@H]1O	1.72 ± 0.41	1.5 ± 0.35	6.09 ± 0.52	0.466 ± 0.028	1.27 ± 0.43	1.54 ± 0.28
CC(Oc1c(Cl)cccc1Cl)C1=NCCN1 (stereo not given) [Lofexidine hydrochloride]	1.08 ± 0.049	1.23 ± 0.22	1.74 ± 0.63	1.32 ± 0.14	0.896 ± 0.28	1.35 ± 0.035
C[C@]12C=CC(=O)C=C1CC[C@@H]1[C@@H]2[C@@H](O)C[C@@]2(C)[C@H]1CC[C@]2(O)C(=O)COC(=O)CCC(=O)O [Prednisolone sodium succinate]	1.81 ± 0.23	1.36 ± 0.15	4.5 ± 2	0.744 ± 0.25	1.53 ± 0.31	1.54 ± 0.096
CC1(C)S[C@@H]2[C@H](/N=C/N3CCCCCC3)C(=O)N2[C@H]1C(=O)O [Mecillinam]	1.13 ± 0.13	0.992 ± 0.18	0.867 ± 0.22	0.859 ± 0.24	0.965 ± 0.45	1.12 ± 0.066
CCC(=O)OCC(=O)[C@@]1(OC(=O)CC)[C@@H](C)C[C@H]2[C@@H]3CCC4=CC(=O)C=C[C@]4(C)[C@@]3(Cl)[C@@H](O)C[C@@]21C [Beclomethasone dipropionate]	0.94 ± 0.048	0.871 ± 0.13	12.1 ± 5.2	6.83 ± 2.1	1.81 ± 0.61	1.95 ± 0.39
Oc1c(Cl)cc(Cl)c(Cl)c1Cc1c(O)c(Cl)cc(Cl)c1Cl [Hexachlorophene]	1.57 ± 0.2	1.22 ± 0.15	0.183 ± 0.15	0.585 ± 0.21	0.145 ± 0.023	0.322 ± 0.11
Cc1occc(=O)c1O [Maltol]	1.3 ± 0.076	1.32 ± 0.096	1.05 ± 0.1	0.25 ± 0.16	0.786 ± 0.073	1.06 ± 0.092
c1ccc(-c2ccc(C(c3ccccc3)n3ccnc3)cc2)cc1 (stereo not given) [Bifonazole]	0.603 ± 0.11	0.627 ± 0.15	0.205 ± 0.18	1.45 ± 0.28	0.735 ± 0.05	1.17 ± 0.22
CCS(=O)(=O)CCn1c([N+](=O)[O-])cnc1C [Tinidazole]	1.66 ± 0.068	1.06 ± 0.086	0.312 ± 0.19	0.503 ± 0.064	0.906 ± 0.31	1.17 ± 0.12
CN(C)[C@@H]1C(O)=C(C(N)=O)C(=O)[C@@]2(O)C(O)=C3C(=O)c4c(O)cccc4[C@@](C)(O)[C@H]3C[C@@H]12 [Tetracycline]	1.55 ± 0.065	2.5 ± 0.18	0.696 ± 0.23	0.369 ± 0.19	0.329 ± 0.046	0.232 ± 0.044
O=C1Nc2ccc(Cl)cc2[C@@](C#CC2CC2)(C(F)(F)F)O1 [Efavirenz]	0.195 ± 0.15	0.0943 ± 0.035	0.00287 ± 0.0024	0.000168 ± 2.2e-05	0.55 ± 0.48	0.767 ± 0.82
CCN(CC)CC#CCOC(=O)C(O)(c1ccccc1)C1CCCCC1 (stereo not given) [Oxybutynin hydrochloride]	1.39 ± 0.19	2.09 ± 0.22	0.822 ± 0.18	0.63 ± 0.043	0.646 ± 0.3	0.374 ± 0.021
Cc1c2oc3c(C)ccc(C(=O)N[C@@H]4C(=O)N[C@H](C(C)C)C(=O)N5CCC[C@H]5C(=O)N(C)CC(=O)N(C)[C@@H](C(C)C)C(=O)O[C@@H]4C)c3nc-2c(C(=O)N[C@@H]2C(=O)N[C@H](C(C)C)C(=O)N3CCC[C@H]3C(=O)N(C)CC(=O)N(C)[C@@H](C(C)C)C(=O)O[C@@H]2C)c(N)c1=O [Dactinomycin] (I: T[dV]P[Sar][NMeV] / II: T[dV]P[Sar][NMeV]; ester I:1-I:C, II:1-II:C; linker I:N-II:N via Actinocin(9to1))	0.466 ± 0.1	0.075 ± 0.029	0.00194 ± 0.00037	0.000235 ± 9.2e-05	0.0876 ± 0.076	0
CC(=O)CCCCn1c(=O)c2c(ncn2C)n(C)c1=O [Pentoxifylline]	1.07 ± 0.16	0.963 ± 0.099	0.682 ± 0.35	0.896 ± 0.52	1.26 ± 0.16	1.11 ± 0.31
Oc1ncnc2[nH]ncc12 [Allopurinol]	1.29 ± 0.28	1.37 ± 0.31	2.55 ± 2.3	0.643 ± 0.34	1.18 ± 0.33	1.61 ± 0.22
COc1cc2nc(N3CCN(C(=O)C4COc5ccccc5O4)CC3)nc(N)c2cc1OC (stereo not given) [Doxazosin]	0.894 ± 0.062	0.78 ± 0.15	0.449 ± 0.44	0.353 ± 0.18	0.957 ± 0.42	0.431 ± 0.17
COC1=C(OC)C(=O)C(CCCCCCCCCCO)=C(C)C1=O [Idebenone]	0.704 ± 0.097	0.549 ± 0.063	0.626 ± 0.2	0.455 ± 0.19	0.963 ± 0.18	0.738 ± 0.18
CC[C@H](C)C(=O)O[C@H]1CCC=C2C=C[C@H](C)[C@H](CC[C@@H]3C[C@@H](O)CC(=O)O3)[C@H]21 [Mevastatin]	0.657 ± 0.019	0.521 ± 0.058	0.339 ± 0.17	0.403 ± 0.092	3.21 ± 0.6	1.17 ± 0.27
O=c1[nH]cnc2c1ncn2[C@H]1CC[C@@H](CO)O1 [Didanosine]	1.48 ± 0.33	0.976 ± 0.032	0.693 ± 0.26	0.775 ± 0.12	1.09 ± 0.53	1.34 ± 0.23
CC(=O)OCC(=O)[C@@]1(O)CC[C@H]2[C@@H]3CCC4=CC(=O)CC[C@]4(C)[C@H]3C(=O)C[C@@]21C [Cortisone acetate]	1.41 ± 0.17	1.01 ± 0.18	0.884 ± 0.21	0.625 ± 0.28	1.21 ± 0.082	1 ± 0.28
CCc1c(C)[nH]c2c1C(=O)C(CN1CCOCC1)CC2 (stereo not given) [Molindone hydrochloride]	1.48 ± 0.054	1.08 ± 0.12	1.32 ± 0.68	0.756 ± 0.26	1.33 ± 0.16	1.42 ± 0.2
Nc1nc(Cl)nc2c1ncn2[C@@H]1O[C@H](CO)[C@@H](O)[C@H]1O [2-Chloroadenosine]	1.23 ± 0.12	1.36 ± 0.065	0.635 ± 0.14	0.684 ± 0.22	0.771 ± 0.045	0.73 ± 0.017
